A collection of fitness landscapes (doi:10.1126/science.1257360)
The list shows a part of the results.

B1: PhoQ; a variant is named by its letters at X, in order, P23837 (parent)
chain: MKKLLRLFFPLSLRVRFLLATAAVVLVLSLAYGMVALIGYSVSFDKTTFRLLRGESNLFYTLAKWENNKLHVELPENIDKQSPTMTLIYDENGQLLWAQRDVPWLMKMIQPDWLKSNGFHEIEADVNDTSLLLSGDHSIQQQLQEVREDDDDAEMTHSVAVNVYPATSRMPKLTIVVVDTIPVELKSSYMVWSWFIYVLSANLLLVIPLLWVAAWWSLRPIEALAKEVRELEEHNRELLNPATTRELTSLVRNLNRLLKSERERYDKYRTTLTDLTHSLKTPLXXLQXXLRSLRSEKMSVSDAEPVMLEQISRISQQIGYYLHRASMRGGTLLSRELHPVAPLLDNLTSALNKVYQRKGVNISLDISPEISFVGEQNDFVEVMGNVLDNACKYCLEFVEISARQTDEHLYIVVEDDGPGIPLSKREVIFDRGQRVDTLRPGQGVGLAVAREITEQYEGKIVAGESMLGGARMEVIFGRQHSAPKDE

Variants of: B1
Assay: enrichment ratio after two sorts for PhoP signalling (ratio (wild type AVST 3.29)); higher = more functional
Details: with PhoP (E. coli)

Variant | enrichment ratio
RSMY | ≤ 0.25
GSAA | ≤ 0.25
MEGY | 11.2
FYCM | ≤ 0.25
CSIM | ≤ 0.25
AIFR | 2.81
HEGQ | ≤ 0.25
RRYA | ≤ 0.25
MADH | ≤ 0.25
EPST | ≤ 0.25
PSML | ≤ 0.25
INEM | ≤ 0.25
AHNL | 0.847
FHVF | ≤ 0.25
ASHM | ≤ 0.25
STVM | 16.3
YAVM | ≤ 0.25
EPEF | ≤ 0.25
VVTS | ≤ 0.25
MRWL | ≤ 0.25
FGWR | ≤ 0.25
HEKV | ≤ 0.25
QWVI | ≤ 0.25
TEGI | ≤ 0.25

Variant | enrichment ratio
TDRE | ≤ 0.25
WRQP | ≤ 0.25
GDDS | ≤ 0.25
AEFY | 0.523
PDRE | ≤ 0.25
WTKL | ≤ 0.25
TECF | 9.82
YHSC | ≤ 0.25
DDGQ | ≤ 0.25
HHGH | ≤ 0.25
WSHV | ≤ 0.25
GTTT | ≤ 0.25
PMNP | ≤ 0.25
FFHF | ≤ 0.25
EKTC | ≤ 0.25
FPDW | ≤ 0.25
DVWL | ≤ 0.25
FCCV | ≤ 0.25
GPVT | ≤ 0.25
PNVT | ≤ 0.25
PKNM | ≤ 0.25
WEKN | ≤ 0.25
NYYR | ≤ 0.25
HIAR | ≤ 0.25

Variant | enrichment ratio
QVCF | ≤ 0.25
DGLV | ≤ 0.25
DHCM | ≤ 0.25
FRIM | ≤ 0.25
SCIN | 0.637
KDYW | ≤ 0.25
PDPG | ≤ 0.25
ILGN | ≤ 0.25
GRWP | ≤ 0.25
TAFH | 2.76
TCHV | 7.71
IWIR | ≤ 0.25
DGCP | ≤ 0.25
GTNA | ≤ 0.25
TFCH | 2.02
KPQW | ≤ 0.25
QFNC | ≤ 0.25
NPCQ | ≤ 0.25
IFMG | ≤ 0.25
ALTT | ≤ 0.25
DYVM | ≤ 0.25
CPRL | ≤ 0.25
TELV | 25.1
ATRQ | ≤ 0.25

Variant | enrichment ratio
GMLS | 0.567
GLSC | 0.624
SWQR | ≤ 0.25
SLGS | 0.404
NTPM | ≤ 0.25
YTFQ | ≤ 0.25
ELSL | ≤ 0.25
VKRS | ≤ 0.25
AWQM | ≤ 0.25
WSWC | ≤ 0.25
TLIA | ≤ 0.25
VNRQ | ≤ 0.25
MNIQ | ≤ 0.25
MTCY | ≤ 0.25
TIGY | 5.33
FKGC | ≤ 0.25
LYSL | ≤ 0.25
SWHS | ≤ 0.25
IDNR | ≤ 0.25
SDMS | 1.69
FGFM | ≤ 0.25
RLSY | ≤ 0.25
HELR | ≤ 0.25
YTFR | ≤ 0.25

Variant | enrichment ratio
QIGQ | ≤ 0.25
PSEF | ≤ 0.25
KDCT | ≤ 0.25
GHME | ≤ 0.25
FEAW | ≤ 0.25
RSKF | ≤ 0.25
GSDL | ≤ 0.25
TRDN | ≤ 0.25
DYCL | ≤ 0.25
IDMF | ≤ 0.25
FGVC | ≤ 0.25
KFYE | ≤ 0.25
DYNW | ≤ 0.25
QFDS | ≤ 0.25
GIRW | ≤ 0.25
YAWW | ≤ 0.25
PSHS | ≤ 0.25
DTGL | ≤ 0.25
VIRH | ≤ 0.25
HFSW | ≤ 0.25
PSPQ | ≤ 0.25
NMLK | 0.982
EFMN | ≤ 0.25
KVWR | ≤ 0.25

Variant | enrichment ratio
TFWF | ≤ 0.25
ETEY | ≤ 0.25
FTPY | ≤ 0.25
PLHM | ≤ 0.25
RAKM | ≤ 0.25
NIPA | ≤ 0.25
EIFR | ≤ 0.25
TQEK | ≤ 0.25
TCDY | ≤ 0.25
FPEH | ≤ 0.25
IQNC | ≤ 0.25
HKMH | ≤ 0.25
IEKV | ≤ 0.25
VGQW | ≤ 0.25
QGHA | ≤ 0.25
VMHH | ≤ 0.25
VWNT | ≤ 0.25
QPPF | ≤ 0.25
EQLL | ≤ 0.25
MLTV | ≤ 0.25
RLEP | ≤ 0.25
QSTY | ≤ 0.25
LGTN | ≤ 0.25
PQTV | ≤ 0.25

Variant | enrichment ratio
DSDV | ≤ 0.25
TKYR | ≤ 0.25
PECN | ≤ 0.25
NKMK | ≤ 0.25
MPYA | ≤ 0.25
CCSV | ≤ 0.25
PSAM | ≤ 0.25
IEGE | ≤ 0.25
GASR | ≤ 0.25
FFSL | ≤ 0.25
GGYI | ≤ 0.25
TEIN | 5.99
AEVN | 10
ETNY | ≤ 0.25
WLCP | ≤ 0.25
DRHC | ≤ 0.25
HKPI | ≤ 0.25
NYFD | ≤ 0.25
SCHA | ≤ 0.25
RIKV | ≤ 0.25
MSPF | ≤ 0.25
MHIR | ≤ 0.25
TENR | 1.26
HYFP | ≤ 0.25

Variant | enrichment ratio
PGQH | ≤ 0.25
WREW | ≤ 0.25
ISWV | ≤ 0.25
IFDS | ≤ 0.25
PHAW | ≤ 0.25
DHET | ≤ 0.25
TLRS | ≤ 0.25
HVFM | ≤ 0.25
WEQF | ≤ 0.25
MAAL | 9.41
FENY | ≤ 0.25
VSSF | ≤ 0.25
LKYS | ≤ 0.25
ADCP | ≤ 0.25
LSRA | ≤ 0.25
SQET | ≤ 0.25
VDID | ≤ 0.25
AMFI | ≤ 0.25
MKFP | ≤ 0.25
IDDG | ≤ 0.25
WCHM | ≤ 0.25
WAMF | ≤ 0.25
PGIA | ≤ 0.25
DKDY | ≤ 0.25

Variant | enrichment ratio
YDES | ≤ 0.25
THME | 49
ITRI | ≤ 0.25
NAIS | ≤ 0.25
MIQI | ≤ 0.25
KNIW | ≤ 0.25
IMEN | ≤ 0.25
ACEF | ≤ 0.25
KAHT | ≤ 0.25
MVSL | 4.63
IEMC | 12.9
QCMS | ≤ 0.25
FDCP | ≤ 0.25
CPRF | ≤ 0.25
RKKR | ≤ 0.25
AGTK | ≤ 0.25
QQKP | ≤ 0.25
HMDN | ≤ 0.25
VLLT | 0.409
VLNC | ≤ 0.25
FYGG | ≤ 0.25
AMYS | ≤ 0.25
FDVD | ≤ 0.25
RKMG | ≤ 0.25

Variant | enrichment ratio
ENGS | ≤ 0.25
LWYD | ≤ 0.25
PPMD | ≤ 0.25
HREI | ≤ 0.25
YLPM | ≤ 0.25
WSHW | ≤ 0.25
WHVN | ≤ 0.25
QEVR | ≤ 0.25
TFSN | 0.566
DDDH | ≤ 0.25
FFVI | ≤ 0.25
THNN | 10.3
NQRD | ≤ 0.25
MCWS | 1.89
HAPY | ≤ 0.25
VEII | ≤ 0.25
TRNS | ≤ 0.25
QWVP | ≤ 0.25
FKMQ | ≤ 0.25
VVND | ≤ 0.25
LDQS | ≤ 0.25
SSAH | 11
PIER | ≤ 0.25
LLSQ | ≤ 0.25

Variant | enrichment ratio
WDQF | ≤ 0.25
FMHY | ≤ 0.25
LQHN | ≤ 0.25
ITKT | ≤ 0.25
LRMA | ≤ 0.25
YDFA | ≤ 0.25
VRGG | ≤ 0.25
DFLQ | ≤ 0.25
IDNI | ≤ 0.25
ASVR | ≤ 0.25
LKMV | ≤ 0.25
NPSV | ≤ 0.25
EYWA | ≤ 0.25
RLFR | ≤ 0.25
PRAH | ≤ 0.25
AMAC | 6.75
FQSL | ≤ 0.25
YGTD | ≤ 0.25
PWCH | ≤ 0.25
KLME | ≤ 0.25
AGVM | 6.21
FYGW | ≤ 0.25
VKWN | ≤ 0.25
MICN | 31.9

Variant | enrichment ratio
MNYH | ≤ 0.25
RRYW | ≤ 0.25
YGAP | ≤ 0.25
QVCK | ≤ 0.25
ARWA | ≤ 0.25
HTIG | ≤ 0.25
SNQW | ≤ 0.25
ETDG | ≤ 0.25
FAIP | ≤ 0.25
YWHK | ≤ 0.25
FYEW | ≤ 0.25
PVTR | ≤ 0.25
NNPK | ≤ 0.25
VFKN | ≤ 0.25
KNRW | ≤ 0.25
PVNR | ≤ 0.25
AQMF | 4.42
KGND | ≤ 0.25
VKGG | ≤ 0.25
WRNK | ≤ 0.25
AKEW | ≤ 0.25
DHFA | ≤ 0.25
SRDR | ≤ 0.25
FAKG | ≤ 0.25

Variant | enrichment ratio
RAGV | ≤ 0.25
DCAR | ≤ 0.25
EEQI | ≤ 0.25
TFKA | ≤ 0.25
GKMR | ≤ 0.25
ANQS | ≤ 0.25
MQNT | ≤ 0.25
TNHF | ≤ 0.25
MHYS | ≤ 0.25
VKFK | ≤ 0.25
PFTH | ≤ 0.25
IFIC | ≤ 0.25
VCYA | ≤ 0.25
YQLF | ≤ 0.25
QMHS | ≤ 0.25
PQEF | ≤ 0.25
MMQI | ≤ 0.25
FYTW | ≤ 0.25
